According to PubChem BioAssay AID588342 (National Center for Advancing Translational Sciences (NCATS), 2011):
Hit rate of the full screen: of about 360,000 compounds, about 25,000 (6.9%) were called active. Inconclusive means that the source gave no clear call. Such entries were picked first, then a sample of the others. Calls come from the whole dose curve; as a rule, active = well fitted inhibition curve with a large enough effect; inconclusive = small, poorly fitted or top-dose-only effect; inactive = flat fitted curve, though single readings scatter. A potency beside an inconclusive call is a rough fit, not a confirmed value.

The compounds below were run against Luciferin 4-monooxygenase (Photinus pyralis) (UniProt P08659) (assay: qHTS profiling assay for firefly luciferase inhibitor/activator using purifed enzyme and Km concentrations of substrates (counterscreen for miR-21 project)). Details: purified FLuc, luminescence inhibition; series mostly up to 57.5 µM.
Method in brief: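 Purified P. pyralis luciferase, 10 nM final, with Km-level 10 uM D-luciferin and 10 uM ATP in 50 mM Tris acetate pH 7.5, 10 mM Mg acetate, 0.01% Tween-20, 0.05% BSA; 6-point qHTS titration about 60 µM downward; luminescence read.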
Note: nearly all actives have a fitted effect of over 55% in size.
Potency is the fitted concentration of half-maximal effect; tags give direction and shape of the fitted curve.
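Throughout, for activity change, negative = inhibition: plate controls were vehicle for no effect and reference inhibitor for full effect.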

Chain of UniProt P08659 (P08659 whole entry, looked up): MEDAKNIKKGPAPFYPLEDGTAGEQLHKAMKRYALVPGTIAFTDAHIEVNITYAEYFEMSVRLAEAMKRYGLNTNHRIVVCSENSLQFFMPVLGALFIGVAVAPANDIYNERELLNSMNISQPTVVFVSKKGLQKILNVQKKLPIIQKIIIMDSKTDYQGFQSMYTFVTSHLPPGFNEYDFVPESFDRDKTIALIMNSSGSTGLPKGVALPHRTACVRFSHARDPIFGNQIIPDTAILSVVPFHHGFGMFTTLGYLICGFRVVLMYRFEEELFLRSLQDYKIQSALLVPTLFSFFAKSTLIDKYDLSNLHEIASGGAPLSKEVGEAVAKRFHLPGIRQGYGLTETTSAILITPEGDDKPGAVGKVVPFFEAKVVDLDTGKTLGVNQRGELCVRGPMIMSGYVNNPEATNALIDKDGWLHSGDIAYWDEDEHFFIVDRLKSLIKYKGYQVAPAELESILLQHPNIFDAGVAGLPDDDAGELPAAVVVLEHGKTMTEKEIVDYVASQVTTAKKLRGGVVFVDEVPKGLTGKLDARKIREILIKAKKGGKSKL

SMILES	Potency	activity change, negative = inhibition
Cc1cccc(C)c1NS(=O)(=O)c1ccc(NS(=O)(=O)c2ccc3c(c2)OCCO3)cc1	inconclusive: 37.9 µM [inhibitor, single point]	
O=C(O)c1ccccc1C(=O)Nc1ccc(-n2nccc2C(F)(F)F)cc1	inconclusive: 30.1 µM [inhibitor, single point]	
O=C(Nc1noc2ccccc12)c1ccc(F)cc1	active: 2.13 µM	
COc1ccc(/C=N/Nc2nc(C)c([N+](=O)[O-])c(N(C)c3ccccc3)n2)cc1OC	inactive	
CCC(=O)c1ccc(CCCCCC(=O)O)s1	active: 9.53 µM	
COc1cc(/C=N/NC(=O)c2ccccc2)ccc1O	inconclusive: 23.9 µM [inhibitor, single point]	
Cc1ccc(-n2c(C)cc(C(=O)CN3CCOCC3)c2C)cc1	inconclusive: 21.3 µM [inhibitor, single point]	
Cc1ccc(C)c(N2CCN(CCCNC(=O)c3ccc4nc(N5CCCCC5)sc4c3)CC2)c1	inconclusive: 13.5 µM [inhibitor, partial curve, poor fit]	
O=C(CSc1nnnn1-c1ccccc1Cl)Nc1ccc2c(c1)OCCO2	inconclusive: 21.3 µM [inhibitor, partial curve, poor fit]	
C=CCNCC(O)COc1ccc(C(C)=O)cc1OC (configuration not stated)	inactive	
N#CC1=C(N)OC2=C(CCc3ccccc32)C1c1ccccc1Cl (configuration not stated)	inconclusive: 26.9 µM [inhibitor, single point]	
CCc1ccc(CNc2ccc(N3CCN(C(C)=O)CC3)cc2)cc1		inactive: 4.02% [at 2.3 µM]
CCN1C(=O)c2ccc(C(=O)Nc3cccc(C(=O)O)c3)cc2C1=O	active: 0.269 µM	
COc1ccc(NC(=O)/C(C#N)=C/c2ccc(Sc3nncn3C)c([N+](=O)[O-])c2)cc1	inactive	
COc1cc(CC(=O)OCC(=O)N2CC(=O)Nc3ccccc32)cc(OC)c1OC	inactive	
COC(=O)c1ccc(NC(=O)CSc2cn(CC(=O)N3CCCCCC3)c3ccccc23)cc1	inactive	
Cc1cc(OCC(=O)N(C)Cc2ccccc2)ccc1Cl	active: 15.1 µM	
COc1ccc(/C=C2\N=C(c3ccccc3)N(c3ccc(C(=O)O)cc3)C2=O)cc1OC	active: 5.36 µM	
Nc1c(-c2ccccc2)cnn1-c1cccc(C(F)(F)F)c1	active: 16.9 µM	
C=CCn1c(SCc2nc3cc(C(=O)OC)ccc3c(=O)[nH]2)nc2sc(CC)cc2c1=O	inactive	
N#CCOc1ccccc1/C=C/c1nc2ccccc2c(=O)[nH]1	inconclusive: 12 µM [inhibitor, partial curve]	
O=C(COC(=O)c1ccccn1)NC12CC3CC(CC(C3)C1)C2	active: 21.3 µM	
Cc1ccc(SCC(=O)N2CCN(c3ccccn3)CC2)cc1	inconclusive: 26.9 µM [inhibitor, partial curve, poor fit]	
COc1ccc(Cl)cc1NC(=O)c1cc2ccc3ccc(C)[nH]c3c2n1	inconclusive: 4.26 µM [inhibitor, partial curve, poor fit]	

SMILES	Potency	activity change, negative = inhibition
COc1ccc(/C(N)=N/OC(=O)c2ccco2)cc1OC	inconclusive: 21.3 µM [inhibitor, single point]	
C=CCNC(=O)c1ccc2c3n(nc2c1)-c1ccc(C)cc1CO3	active: 2.39 µM	
CCOC(=O)N1CCN(C(=O)CSc2nnc(CNC(=O)c3ccccc3F)o2)CC1	inactive	
Nc1nc(N)nc(-c2cc([N+](=O)[O-])ccc2O)n1	inactive	
O=C(c1cc(-c2ccc(Cl)cc2)on1)N(Cc1cccc(F)c1)Cc1ccco1	inactive	
Cc1nc2sccn2c(=O)c1S(=O)(=O)NCc1ccc(F)cc1	inactive	
COc1ccc2nc(NC(=O)Nc3ccccc3OC)sc2c1	active: 0.953 µM	
CN(C)/C=C1/Sc2ccccc2C1=O	inconclusive: 23.9 µM [inhibitor, partial curve, poor fit]	
CCC(C)OC(=O)c1[nH]c2c(c1C)C(=O)CC(c1ccc(N(C)C)cc1)C2 (configuration not stated)	active: 10.7 µM	
COCc1nnc(NC(=O)c2ccc(S(=O)(=O)N3CCCc4ccccc43)cc2)o1	inconclusive: 30.1 µM [inhibitor, partial curve, poor fit]	
O=C(N/N=C/c1ccsc1)c1cc2ccccc2o1	inconclusive: 7.57 µM [inhibitor, partial curve]	
C=CCn1c(NCc2ccccc2O)nc2ccccc21	inconclusive: 21.3 µM [inhibitor, single point]	
COc1cccc2c1C(=O)c1c(O)c3c(c(O)c1C2=O)C[C@](O)(C(C)=O)C[C@H]3O[C@@H]1C[C@@H](N)[C@@H](O)[C@@H](C)O1	inconclusive: 30.1 µM [inhibitor, partial curve, poor fit]	
COc1ccccc1CNC(=O)CCCn1nc(C)c2sc3ccccc3c2c1=O	inconclusive: 26.9 µM [inhibitor, partial curve, poor fit]	
Cc1cnn(-c2cc(N/N=C/c3ccc(F)cc3)ncn2)c1	inconclusive: 0.953 µM [inhibitor, partial curve, poor fit]	
CCN(c1ccccc1)S(=O)(=O)c1ccc(C(=O)Nc2ccccn2)cc1	inconclusive: 37.9 µM [inhibitor, partial curve, poor fit]	
COc1ccc(C(=O)NCCSc2ccccc2)cc1OC	inconclusive: 30.1 µM [inhibitor, single point]	
COc1ccccc1NC(=O)NCc1ccccc1F	inconclusive: 16.9 µM [inhibitor, partial curve]	
Cn1cc(-c2cc3n(n2)CCC(=O)N3CC(=O)O)c2ccccc21	inactive	
O=C(NCCNc1ccccc1[N+](=O)[O-])c1ccccc1F	inconclusive: 26.9 µM [inhibitor, single point]	
CCc1c(C)nc(SCC(=O)c2cccs2)c(C#N)c1C	active: 2.69 µM	
CCCC(=O)Nc1ccc(NC(=O)c2cccs2)cn1	inconclusive: 26.9 µM [inhibitor, single point]	
COc1ccc(CN2C(=O)/C(=C/c3ccc(-c4ccc(Cl)c(C(=O)O)c4)o3)SC2=S)cc1	inconclusive: 21.3 µM [inhibitor, single point]	
